Laboratory results: the supplement of paper PMC3334620
Whole data set: some 33,000 sequences, median “E-score (-0.5 to 0.5)” near -0.012, cut for the highest 2% near 0.29. Some of the results follow.

What follows are sequences tested against T1, Ybr033w (UniProt P38073) (assay: PBM E-score (8-mer binding enrichment) (E-score (-0.5 to 0.5)); higher = stronger / more preferred TF binding; most listed sequences are background and not binding sites). Conditions: protein concentration: 200 nM; construct: GST-full length.
T1 sequence: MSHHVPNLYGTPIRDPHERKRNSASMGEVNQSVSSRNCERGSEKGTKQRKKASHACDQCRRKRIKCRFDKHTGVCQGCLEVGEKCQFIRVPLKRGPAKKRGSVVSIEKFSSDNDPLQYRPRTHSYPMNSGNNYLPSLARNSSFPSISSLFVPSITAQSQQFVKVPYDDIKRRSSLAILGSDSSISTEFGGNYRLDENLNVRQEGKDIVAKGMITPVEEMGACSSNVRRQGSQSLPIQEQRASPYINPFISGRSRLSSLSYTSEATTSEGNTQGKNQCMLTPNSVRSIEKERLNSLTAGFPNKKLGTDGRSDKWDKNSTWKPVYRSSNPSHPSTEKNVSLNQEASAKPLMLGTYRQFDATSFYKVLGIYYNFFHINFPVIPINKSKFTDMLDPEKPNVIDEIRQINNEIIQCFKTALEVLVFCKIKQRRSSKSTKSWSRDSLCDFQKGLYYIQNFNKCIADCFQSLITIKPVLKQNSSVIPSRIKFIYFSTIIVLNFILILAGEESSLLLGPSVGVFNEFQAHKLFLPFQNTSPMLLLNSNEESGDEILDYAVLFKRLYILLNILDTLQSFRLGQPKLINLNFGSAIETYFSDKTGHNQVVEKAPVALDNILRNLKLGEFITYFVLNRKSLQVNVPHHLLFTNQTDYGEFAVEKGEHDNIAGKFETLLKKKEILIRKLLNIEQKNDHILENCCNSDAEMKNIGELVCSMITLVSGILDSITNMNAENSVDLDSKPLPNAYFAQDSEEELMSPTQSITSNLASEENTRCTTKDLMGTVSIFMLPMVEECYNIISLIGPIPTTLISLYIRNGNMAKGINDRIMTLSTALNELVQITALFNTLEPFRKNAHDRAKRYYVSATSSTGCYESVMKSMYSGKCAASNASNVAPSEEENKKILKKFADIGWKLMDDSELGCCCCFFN
How it was run: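 Bound GST-tagged yeast transcription factors, applied at about 100-200 nM to double-stranded universal all-10-mer Agilent arrays, were detected with fluorescent anti-GST. Scans were normalised with masliner. A modified Wilcoxon-Mann-Whitney statistic, the E-score, was assigned to each ungapped eight-base word pooled with its reverse complement by the Universal PBM Analysis Suite.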

| Sequence | PBM E-score |
| --- | --- |
| ATGCCTTG | 0.0358 |
| GAATTGAC | 0.00537 |
| CTCCACGA | -0.0474 |
| CACCGGTG | -0.255 |
| CGACGGAG | -0.019 |
| ATTGATGG | 0.213 |
| CCGTTCAC | -0.112 |
| GAAGGTCA | 0.0288 |
| CCTACGAA | 0.0282 |
| ACCTCCTC | -0.169 |
| CCGAAAGA | 0.0944 |
| CTTGTGTA | 0.131 |
| CCCTTCTC | -0.337 |
| GAATCTCC | -0.151 |
| CGCATCGC | -0.165 |
| ATCCTCCG | -0.173 |
| CGACACTC | 0.00696 |
| GACAATAA | 0.186 |
| CTAGTAAC | 0.0169 |
| CAGCGCGG | -0.00239 |
| ATCGTCGC | 0.0195 |
| ACGTACTA | 0.217 |
| CGATTCTC | -0.0452 |
| GAGGGGAA | -0.0397 |
| CCTACTCC | -0.0891 |

| Sequence | PBM E-score |
| --- | --- |
| GACCCGCA | -0.187 |
| GCGCTCCA | -0.315 |
| GGACTTGA | -0.154 |
| ACGGGCCC | -0.344 |
| CGGACGAA | 0.127 |
| ATTAAACC | 0.187 |
| ATTCTTGG | 0.098 |
| ATCAATGA | 0.267 |
| AGACCCCT | -0.323 |
| GGCCCACC | -0.307 |
| CTGAGGTA | -0.0539 |
| CACTAAGG | -0.203 |
| ACACATAT | 0.132 |
| GCGTGATA | -0.0494 |
| CAATGACC | -0.0669 |
| AATAGCCG | -0.0639 |
| CATTGTTC | 0.31 |
| GCTATTGA | 0.0859 |
| AAAGTGCC | -0.219 |
| CACGGATA | 0.147 |
| ACAGTGCA | 0.0582 |
| ACTTCATA | 0.0836 |
| CGAGTTTA | 0.00605 |
| AACTTTGC | 0.0862 |
| GTTGCTTA | 0.116 |

| Sequence | PBM E-score |
| --- | --- |
| AACATCCG | 0.12 |
| GCGTGTTA | -0.0178 |
| CCCTAACG | -0.0121 |
| AAACCGAA | 0.0764 |
| CCAAATTA | 0.269 |
| CCACTTTA | 0.225 |
| CCTACACA | 0.0171 |
| ACCCATCG | -0.0756 |
| ACCATCCG | 0.0385 |
| ACTTTGCG | -0.0328 |
| ATGAGCAG | -0.00353 |
| TCAGCTGA | 0.203 |
| ATGCCGGG | -0.191 |
| CGGATGAG | -0.0297 |
| AGACAACG | -0.115 |
| ACGGTAGA | -0.0598 |
| AATTATAC | 0.284 |
| AAAAGAGA | 0.00246 |
| CTAAGGCC | -0.193 |
| CATGTAAG | -0.0133 |
| GCCTCGCA | -0.0398 |
| AATCCACT | 0.193 |
| CCGAGGAA | 0.054 |
| ACGTGTCT | -0.167 |
| AGGATTGG | -0.103 |

| Sequence | PBM E-score |
| --- | --- |
| CCCAACCG | -0.169 |
| CACAAGTA | 0.0476 |
| AGAAGCAA | 0.134 |
| AGAGATCG | -0.0064 |
| AACCGCTC | -0.127 |
| ACTTTTGA | 0.105 |
| ACCATCGC | -0.0324 |
| ACAATACG | 0.149 |
| ACACACTG | -0.092 |
| CGACTTCA | 0.0259 |
| CCAGAGTA | -0.0169 |
| CTGCCAGC | -0.0939 |
| ACTGCAAG | -0.0597 |
| GGAGAGTA | -0.0818 |
| CACTTATA | 0.176 |
| TCTTAGAA | 0.254 |
| GTGTAAAA | 0.112 |
| ATTTTAAA | 0.248 |
| ATGCGGGA | 0.0928 |
| CTCCTATC | -0.0727 |
| AAGTAGGT | -0.13 |
| GGTATTGA | 0.0704 |
| AATACACT | 0.18 |
| GCCTTTAC | -0.0171 |
| GGTCTATA | 0.00227 |

| Sequence | PBM E-score |
| --- | --- |
| AGTGGGCC | -0.405 |
| GTTGGGCA | -0.0726 |
| CTTGCCAC | -0.0894 |
| AGTGCTTA | -0.00926 |
| ACAAATAG | 0.167 |
| CCCGTTTA | 0.149 |
| CACCCCAA | -0.0395 |
| CCAGGCAG | -0.203 |
| CCCTGCCA | -0.191 |
| AAATCGTT | 0.148 |
| CAGTCAGA | -0.125 |
| CCGTATAA | 0.151 |
| ACAGAGCT | -0.153 |
| CCGGGGGC | -0.414 |
| GACTATAC | -0.0185 |
| ACGTTTTA | 0.149 |
| TACCTTAA | -0.0152 |
| ACAGAGTA | 0.0826 |
| GGGTACCA | -0.307 |
| ATCGCCTA | -0.0686 |
| ATCCAGAA | 0.197 |
| GAGAAATA | 0.265 |
| AATAAGGC | 0.0806 |
| ATTAAGAA | 0.0816 |
| GCATTAGC | -0.0425 |

| Sequence | PBM E-score |
| --- | --- |
| CGGTCGAA | -0.0905 |
| ATTCTCCC | 0.14 |
| GGACCTCC | -0.353 |
| CAGTCTGA | -0.112 |
| CCATTCCG | -0.0635 |
| ATGTTCTG | 0.114 |
| TCAAACAA | 0.187 |
| CTTTGAAC | -0.136 |
| AAGTCAAG | -0.173 |
| CGGATTGC | 0.0199 |
| AGCGCAAC | 0.0558 |
| CACTTCAC | 0.0793 |
| AGAGTTTA | 0.235 |
| CACGTCCG | -0.213 |
| AGTGACGA | 0.0162 |
| AGAGACAT | 0.101 |
| CGGACGGA | -0.25 |
| GGGGTTAA | -0.149 |
| ATGTTCCG | 0.458 |
| AACCGGAT | 0.254 |
| CCCGCACC | -0.137 |
| ACAATTAG | 0.0047 |
| GATCATCC | 0.268 |
| GGTAAGAC | -0.031 |
| CTCAAATA | 0.0996 |

| Sequence | PBM E-score |
| --- | --- |
| CTGATTTA | 0.156 |
| AGCTGGAT | 0.00667 |
| CTTATACA | 0.0352 |
| ACAAGGCC | -0.151 |
| GACACTGA | 0.0182 |
| CCTTGAAC | -0.0759 |
| AAACTGGT | 0.0445 |
| ACCAATCC | -0.0137 |
| GTAGCACA | -0.0634 |
| GAGTGTAC | -0.0792 |
| ATTCAAGG | -0.0509 |
| AACTGAGA | 0.0375 |
| GATGATAA | 0.167 |
| CACAAGCA | 0.0199 |
| GGGCAACA | -0.113 |
| ACCAGCGT | -0.25 |
| CCCAATCG | -0.175 |
| ATCATGGG | -0.179 |
| AGCGTACA | -0.2 |
| AGAAGTTA | 0.0709 |
| CCCCCGAG | -0.378 |
| AGGCCCGG | -0.364 |
